# In the supplement of paper PMC8728848:
# The list shows a part of the results.
# Legend:
# Assay in all cases: glycan array binding signal (z-score within array); higher = stronger binding
# Conditions in all cases: glycan notation: IUPAC condensed, linker removed
# Gal3S(b1-4)Glc6S = molecular target: Gal3S(b1-4)Glc6S
# Summary of the method: (§1)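 Arrays were curated from the Consortium for Functional Glycomics database, 3228 in total, and kept only where the protein sequence was available. Binding is expressed as a within-array Z-score. This score was averaged across arrays of the same protein sequence at different concentrations or buffers and across linkers, and negative values can be read as non-binding.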
# Gal3S(b1-4)GlcNAc = molecular target: Gal3S(b1-4)GlcNAc
# Summary of the method: as §1
# [1] = molecular target: Gal3S(b1-4)[Fuc(a1-3)]Glc6S
# Summary of the method: as §1
# [2] = molecular target: Gal3S(b1-4)[Fuc(a1-3)]GlcNAc
# Summary of the method: as §1
# [3] = molecular target: Gal3S(b1-4)[Fuc(a1-3)]GlcNAc6S
# Summary of the method: as §1
# Gal3S4S(b1-4)GlcNAc = molecular target: Gal3S4S(b1-4)GlcNAc
# Summary of the method: as §1
# Gal3S6S(b1-4)GlcNAc = molecular target: Gal3S6S(b1-4)GlcNAc
# Summary of the method: as §1
# Gal3S6S(b1-4)GlcNAc6S = molecular target: Gal3S6S(b1-4)GlcNAc6S
# Summary of the method: as §1
# Gal4S(b1-4)GlcNAc = molecular target: Gal4S(b1-4)GlcNAc
# Summary of the method: as §1
# Gal4S6S(b1-4)GlcNAc = molecular target: Gal4S6S(b1-4)GlcNAc
# Summary of the method: as §1
# Gal6P(b1-4)GlcNAc = molecular target: Gal6P(b1-4)GlcNAc
# Summary of the method: as §1
# Gal6S(b1-3)GlcNAc = molecular target: Gal6S(b1-3)GlcNAc
# Summary of the method: as §1
# Gal6S(b1-3)GlcNAc6S = molecular target: Gal6S(b1-3)GlcNAc6S
# Summary of the method: as §1
# Gal6S(b1-4)Glc = molecular target: Gal6S(b1-4)Glc
# Summary of the method: as §1
# Gal6S(b1-4)Glc6S = molecular target: Gal6S(b1-4)Glc6S
# Summary of the method: as §1
# Gal6S(b1-4)GlcNAc = molecular target: Gal6S(b1-4)GlcNAc
# Summary of the method: as §1
# Gal6S(b1-4)GlcNAc6S = molecular target: Gal6S(b1-4)GlcNAc6S
# Summary of the method: as §1
# GalNAc(a1-3)Gal = molecular target: GalNAc(a1-3)Gal
# Summary of the method: as §1
# GalNAc(a1-3)GalNAc = molecular target: GalNAc(a1-3)GalNAc
# Summary of the method: as §1
# [4] = molecular target: GalNAc(a1-3)GalNAc(a1-3)Gal(a1-4)Gal(b1-4)GlcNAc
# Summary of the method: as §1
# [5] = molecular target: GalNAc(a1-3)GalNAc(b1-3)Gal(a1-4)Gal(b1-4)Glc
# Summary of the method: as §1
# GalNAc(b1-3)Gal = molecular target: GalNAc(b1-3)Gal
# Summary of the method: as §1
# [6] = molecular target: GalNAc(b1-3)Gal(a1-4)Gal(b1-4)GlcNAc
# Summary of the method: as §1
# [7] = molecular target: GalNAc(b1-3)Gal(a1-4)Gal(b1-4)GlcNAc(b1-3)Gal(b1-4)Glc
# Summary of the method: as §1
# [8] = molecular target: GalNAc(b1-3)Gal(a1-6)Gal(b1-4)Glc
# Summary of the method: as §1
# GalNAc(b1-3)GalNAc = molecular target: GalNAc(b1-3)GalNAc
# Summary of the method: as §1
# GalNAc(b1-3)GlcNAc = molecular target: GalNAc(b1-3)GlcNAc
# Summary of the method: as §1
# GalNAc(b1-4)Gal(b1-4)Glc = molecular target: GalNAc(b1-4)Gal(b1-4)Glc
# Summary of the method: as §1
# GalNAc(b1-4)GlcNAc = molecular target: GalNAc(b1-4)GlcNAc
# Summary of the method: as §1
# [9] = molecular target: GalNAc(b1-4)GlcNAc(b1-2)Man
# Summary of the method: as §1
binder,measurement,setting,value
Pbx2 (Cryptococcus neoformans) (protein) AVSPLPSSTELVFYSQKRRRRRICSTATGSLSTPDPTRMTSDPYKRVGMRFSSVPRLLITFLSLLLLVSAAPPCVRFADYDSINQMFIDGGPGTKVLLCPNRLYRLSGPIIFTAADQEIATYGYPTGSERAVLRVEGRNTATAIQGDCRRCARVSVKNLVVDGNRKKLGRMRDFQLATGLVVLGGNEGQSIQNSWIKNPRGFTAIHIREGDKLQCSGARVEKNEIGPVGEEYDPEKDGDDPEMSPLGRPLADGVSIACRDSFIRDNTFRDNTDAAIVVYCSPGTLIHANHIFAQSLSAMAGILMVDSTPFNGDYTGTVVRSNIIDAVSRTIRVGIGIGPTVWSDDTETILTGGSVIGNGLKGRYMGYGIAAAGLKQWTIKDNWDEAKHEGRKSARCFDEPVNPDPIGLLYNRPTMEDCTVQSGFADHDFQYLVCIDGLYDKTNPPKHDPAPLAHDPSPTNAQEDNTVQQDGGDSKSKSIEQPREASDIEAEPSVEKMFSTGSEMMDDVLEHSHQRMHEVIDHLSRRIDILGAASAGKGSGDSKISEVLDPAMSSHLEKLQRKIEHLEFSLRSQIETAIQLRSAIQGWDQEMALVTDWEYDILLDVRHKLELSSYPHDQPLDPRLMRGQSYLNNEAVLVDDHSHPSLEGENLRAMSDRARLNANEEA,glycan array binding signal (z-score),Gal3S(b1-4)Glc6S,1.77
same,glycan array binding signal (z-score),Gal3S(b1-4)GlcNAc,-0.362
same,glycan array binding signal (z-score),[1],0.817
same,glycan array binding signal (z-score),[2],-0.345
same,glycan array binding signal (z-score),[3],2.33
same,glycan array binding signal (z-score),Gal3S4S(b1-4)GlcNAc,0.738
same,glycan array binding signal (z-score),Gal3S6S(b1-4)GlcNAc,-0.241
same,glycan array binding signal (z-score),Gal3S6S(b1-4)GlcNAc6S,6.21
same,glycan array binding signal (z-score),Gal4S(b1-4)GlcNAc,-0.339
same,glycan array binding signal (z-score),Gal4S6S(b1-4)GlcNAc,2.65
same,glycan array binding signal (z-score),Gal6P(b1-4)GlcNAc,-0.323
same,glycan array binding signal (z-score),Gal6S(b1-3)GlcNAc,-0.45
same,glycan array binding signal (z-score),Gal6S(b1-3)GlcNAc6S,3.95
same,glycan array binding signal (z-score),Gal6S(b1-4)Glc,0.118
same,glycan array binding signal (z-score),Gal6S(b1-4)Glc6S,2.65
same,glycan array binding signal (z-score),Gal6S(b1-4)GlcNAc,-0.34
same,glycan array binding signal (z-score),Gal6S(b1-4)GlcNAc6S,2.56
same,glycan array binding signal (z-score),GalNAc(a1-3)Gal,-0.128
same,glycan array binding signal (z-score),GalNAc(a1-3)GalNAc,-0.63
same,glycan array binding signal (z-score),[4],0.168
same,glycan array binding signal (z-score),[5],-0.031
same,glycan array binding signal (z-score),GalNAc(b1-3)Gal,-0.31
same,glycan array binding signal (z-score),[6],-0.438
same,glycan array binding signal (z-score),[7],-0.339
same,glycan array binding signal (z-score),[8],-0.288
same,glycan array binding signal (z-score),GalNAc(b1-3)GalNAc,-0.343
same,glycan array binding signal (z-score),GalNAc(b1-3)GlcNAc,-0.369
same,glycan array binding signal (z-score),GalNAc(b1-4)Gal(b1-4)Glc,1.86
same,glycan array binding signal (z-score),GalNAc(b1-4)GlcNAc,-0.531
same,glycan array binding signal (z-score),[9],-0.358
